In all, about 33,000 sequences were measured (“E-score (-0.5 to 0.5)”: median about -0.01, highest 2% from about 0.26 on). The list shows a part of the results.
Molecular target: Ste12 (UniProt P13574)
Experiment: PBM E-score (8-mer binding enrichment) (E-score (-0.5 to 0.5)); higher = stronger / more preferred TF binding; most listed sequences are background and not binding sites
Conditions: protein concentration: 200 nM; construct: GST-DNA-binding domain
Procedure, shortened: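 Universal all-10-mer Agilent arrays, double-stranded by primer extension on fresh or once-stripped slides, were probed with about 100-200 nM GST-tagged yeast transcription factors made by PURExpress. Fluorescent anti-GST detected bound protein, and masliner normalised the scans. E-scores from the Universal PBM Analysis Suite were given to each ungapped eight-base word pooled with its reverse complement.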

Sequence | PBM E-score
AGTGGGAA | 0.0403
CTGTATCA | 0.207
GAAGAATC | -0.206
CGGTAGCC | -0.107
CTGACTAA | -0.00263
GGGTATAA | 0.0292
CGATACCA | 0.0193
ACATTCTA | -0.225
AACCGTGC | -0.0463
CCAATAGA | -0.00619
AACGTGCA | -0.11
GATAGCCC | -0.21
CCGGCGTA | -0.0476
GATTTTTA | 0.226
CCTTCGAG | -0.201
CATCTGGA | 0.0218
AGCTGACT | -0.106
CTGTAGTA | 0.186
CTGCGAAA | -0.0417
CGATCACC | 0.143
ACGACTCT | -0.242
GTTCATCA | 0.0345
CTGATATA | 0.0238
GCAGATAC | -0.0796
AGCACTAG | -0.0945

Sequence | PBM E-score
CCCGATCG | -0.0225
ATCTGCGA | -0.0393
GACCGATA | -0.00126
ATGGAGTC | -0.0356
GAACTGCC | -0.0805
GAAGATAA | -0.0185
CAAGTCAG | -0.112
AACTTAAG | 0.0435
AGGGAAAG | 0.0388
CGGTGGAA | -0.0833
CTTGGATC | -0.112
ACGCAACT | 0.0274
GAATATCC | -0.0779
AGACGACT | -0.13
GGATATCC | -0.0826
CGGAACTA | 0.0915
ATTGCTAA | 0.0939
CACATTAG | -0.116
AAGCGCAA | -0.0268
AGACCAGA | 0.00564
GTAGCTAC | -0.201
CCGCCTAG | -0.0107
AATGGTCC | -0.0695
AGCAGTAG | -0.168
ATTCCCTG | 0.0875

Sequence | PBM E-score
CGCCTGAC | 0.0268
GTCGAGCA | -0.222
GATCCGCC | -0.0897
ACTGTGGA | -0.123
AGGGAGGA | -0.192
GCGGATAC | 0.0575
ATTGGTCC | 0.0259
CACCAAGA | -0.103
ATGGCGGA | -0.162
CGTGCGCC | 0.073
ATGTGCGA | 0.0368
CACGCTCA | 0.0152
AACGTTGG | 0.038
AGGAGACT | -0.215
ATAAGTCG | -0.0266
AACCCTCC | -0.0183
AGTGGCAA | -0.108
GCCCAAAA | 0.121
ATTTTTTG | 0.222
GGGTAGGA | -0.227
CTAAAGGA | -0.0733
CCGAACGG | -0.0282
CTCCACAA | 0.00925
GCAAGCGA | 0.0255
CGACAACC | -0.103

Sequence | PBM E-score
AAGGGATA | 0.0881
AACCAAGA | 0.165
AATTTCTC | 0.0129
TCCACCAA | -0.0785
ATGGACTG | -0.212
CTGAAAGC | 0.085
CAGCTCGC | 0.0242
AGTTGAAT | 0.226
AAAGAGCT | -0.0369
GGGGGTAC | -0.16
AGCAAAGA | 0.0373
AGCTATAG | -0.0842
CGACTACA | -0.0813
GAGTACTA | -0.196
GAAATTTC | 0.0669
AGGACCGC | -0.00188
AGTTTCCA | 0.212
ATTGCTGG | -0.146
ACGTCTTG | -0.103
TATCCACA | -0.0717
CTATGGAC | -0.0398
AATAATCC | 0.0844
GTACCTAA | -0.0961
ACCCGCCC | 0.361
AACTCTGG | -0.0542

Sequence | PBM E-score
CGTAGCTA | -0.295
AACCCTGC | -0.123
ACAATCCT | -0.0366
CACATATG | -0.0469
ATGTGTCA | 0.119
CTGGCTAC | -0.123
CGGGCTGC | -0.0993
GATTTATA | 0.182
CAGTCATG | -0.0234
CAATACTA | -0.117
CATTCTAC | 0.00037
AACGACTT | -0.22
CTTAGAAG | -0.0859
AGCGTATG | -0.0619
GACTCCTA | -0.0887
AGCATCGC | -0.0384
AAACGTTG | 0.111
CCCGGGTA | 0.0597
CCCCACAG | -0.148
GATCTACC | -0.0505
ACGTCGTG | -0.0823
GTAGGCAA | -0.144
AGAGGCTA | -0.0372
GTTCCTCA | -0.0775
AGCAATAG | -0.204

Sequence | PBM E-score
AACATACA | 0.0906
CGGCTTAA | 0.225
ACCGTGCG | -0.102
CCCAAAAC | 0.253
AGCCCCTC | -0.00471
CATTATGA | -0.0123
CACTAGTG | -0.00848
GTCGTTAA | -0.0115
CACGGTAG | -0.184
ACCACTTG | 0.0214
CAAGGATA | -0.0606
CCAGCTTC | -0.109
CGCACTAC | -0.175
CCCCTACG | -0.263
GGCGAAGA | -0.173
CTGAATAA | 0.0613
TAATTATA | 0.251
AGACGGGG | -0.0599
AGTGGATA | 0.0171
TCCGATAA | -0.0449
ACTATTGA | 0.128
GAGTATGA | 0.169
AGATTCGG | 0.00429
AGCACATC | -0.0218
CGGGGGAG | -0.184

Sequence | PBM E-score
TGCACTAA | -0.0735
ATCGCTTA | -0.147
GACGGATA | -0.0128
ATATAGTA | 0.123
GCCGCGAA | 0.0341
CTAATAGA | 0.0822
GACGAAGC | 0.0172
GGAACGAC | -0.153
CATCCCCC | -0.0111
CGTCCGAC | -0.149
TCTGCGCA | -0.137
CTCATAAG | 0.0456
AGAGGTAC | -0.167
ACAAGACC | -0.192
AAGTAGAA | 0.072
ACCAGGAG | -0.248
CGAAATAG | -0.097
CTCGAAGC | -0.273
GTCGTGGA | -0.337
AATTCCTC | -0.145
CCTATATC | -0.0237
ACATGAGT | -0.0781
ACTTGAGC | -0.267
GATTTTAC | 0.0343
CAGTACTA | 0.00921

Sequence | PBM E-score
CCGTGTAC | -0.0839
ATAACCCC | 0.0553
AATAGACT | 0.0457
ACTCTCCC | -0.0353
ACCAAGGA | 0.0667
ATCGGGGC | 0.0313
AAGCGCGA | 0.0291
GACATAGC | -0.101
ATCGCACG | -0.0146
GAGCGATC | -0.105
TCGGCAAA | 0.0674
CTTCCATC | 0.142
GATCTTGC | -0.0499
CGACCAGA | 0.0249
ATCAGTTG | 0.0486
AAAATGTG | 0.112
CCGTGATA | -0.0518
GAGTGGAC | -0.193
GCGATGAC | 0.0974
TCACCCCA | 0.233
AATATCCA | 0.0334
AGTATGAC | 0.0943
AATCCACA | 0.0762
CCGTCAAC | -0.136
AGGTTGGG | -0.0348

Sequence | PBM E-score
CACCCCAG | -0.0424
AACCCACG | 0.00698
GTCGTGTA | 0.011
ATATAGAT | 0.179
CGACAGCC | 0.0223
AAGACATC | -0.144
CACGCAGG | 0.0557
GTTAATGA | 0.12
CACTCTTC | -0.0688
ATCGGCAT | 0.0127
TAGCGTCA | -0.105
CCATAGCC | -0.277
CAGCCCCG | -0.00856
CCGGCCGA | -0.0039
CATGTTAC | 0.195
GTAGCAAA | 0.0457
CAGTTGCA | -0.0529
GGAAGATA | 0.128
CGCACCTC | -0.0617
AAGCTAGA | 0.0617
ATAGCTGA | -0.00919
GATTTCCA | 0.0343
AAACCAGG | 0.167
ACCCTCAC | -0.029
ACTCTGAC | 0.0647

Sequence | PBM E-score
AGCCAGAC | -0.132
GGCCTAGA | 0.0115
AGGTAGTC | -0.199
GTAGCGAC | -0.184
GCATTGAA | 0.0755
CGTAAAAC | 0.0692
CGACATTA | 0.163
GTAGCCTA | -0.17
CCCCCAGG | -0.0579
GTGAAACA | 0.48
ATGATTTC | 0.189
ATCCTGGA | 0.0311
GGTCCATA | -0.111
AAGTAAGA | 0.163
AAGGCACG | -0.118
GGGGGATA | -0.192
AAATGTCC | -0.0748
AATGGCGT | -0.0391
AAATTCCC | 0.0173
GCGCTACA | -0.00414
CATCTTTC | 0.00071
ACACCCAT | 0.0672
GCTAACGA | 0.0186
AACTTACA | 0.132
CATAAATG | 0.0736

Sequence | PBM E-score
CGTGTCCC | -0.241
GGCCAGGA | -0.0649
ACTCATCG | -0.164
GACAGGAC | -0.0473
CAATGTCG | 0.148
AATGAGTC | -0.181
GACCATTA | -0.0549
ACTTACAC | -0.0103
AGCGCCTG | -0.153
CTTAGCGA | -0.0541
GCGTTGCC | -0.211
ATGCTTAG | -0.205
AAGAAGCT | -0.0792
TACCGAAA | 0.0921
TACACAGA | -0.134
CCTTACAC | 0.161
AACAAGCG | 0.0751
AGGATTAA | 0.057
CGCGTGAA | 0.164
ATGGTCAG | 0.00808
GAACTGGA | 0.156
TATGAAAA | 0.152
AACATGGT | -0.0907
GGAGCTAA | -0.00628
GATAGGCA | -0.0249

Sequence | PBM E-score
CAAACTCC | 0.108
TGAGCTAA | -0.0278
AGAGACAA | -0.154
CGAGCCGC | 0.118
ATCCTAAC | -0.03
AGGTAAGG | 0.0199
ACAAATGA | 0.183
AGACTACT | 0.0378
GCCGACCA | -0.154
CATAGGGG | -0.118
GGACGCCA | -0.16
ACCGCTTA | -0.157
TAGGAAAA | 0.164
CTCCTAAA | -0.135
CAATATTA | 0.176
CAGCAAGA | 0.0428
CGCCATTA | 0.0104
CTGCAAAC | -0.0883
GCGGCAAA | 0.0181
AATCCCCC | -0.12
ATGTAATC | -0.0388
AATCGCTG | -0.102
CGAATGTA | -0.00511
CCGTCTTA | -0.189
AATGAAGC | -0.0558

Sequence | PBM E-score
CCCTGTCC | -0.205
GACTTGAC | -0.0322
AGGCGGAG | 0.0156
AGTCGGCA | -0.0216
GCGCAGCC | -0.301
ATTGTTCC | 0.0679
AGAGATTG | 0.0539
AGAGCTGA | -0.0939
AAGCTCGG | -0.00139
ACTCCCGG | -0.0353
CAGATGTC | 0.023
CACACGTC | -0.0759
AAGTCACT | -0.0284
GGCTGCCA | -0.0511
CCCCGTAC | -0.0713
AACGGAGC | -0.11
TATTTCGA | 0.225
AACCAACG | 0.0688
GGTGGTAC | -0.281
ACCCATGC | -0.134
TCATCAGA | -0.0415
AGACACCG | -0.0911
CGACCAAC | -0.0558
AATACTAG | 0.182
AAGATCTC | 0.0658

Sequence | PBM E-score
GGGAACAC | -0.0371
CTCTACCC | 0.0287
ACGGGGCC | -0.0376
CTTTAAGC | 0.143
CTCGATCC | 0.0884
ATGACAGC | -0.0899
GAGGAAGC | -0.0777
GATGGAGA | 0.015
CCTCCCTA | 0.12
CTCAGCTC | -0.161
AGGACTTC | -0.222
AAACAAGA | 0.183
AGACCACG | -0.255
GTGGAAAA | 0.168
GTGCGAAA | 0.133
CGCGCCAC | 0.0895
AGACCCAA | 0.0589
CCAGCGTC | -0.0714
CACTCATC | -0.113

From the supplement of paper PMC3334620
